# Reference: PubChem BioAssay AID1461 (National Center for Advancing Translational Sciences (NCATS), 2008)
# The campaign covered roughly 220,000 compounds. About 2,300 (1%) were called active. This list was built around the results that the source calls inconclusive (neither active nor inactive); the mix of calls is not that of the screen. Calls follow the shape of the dose curve; as a rule, active = well fitted inhibition curve with a large enough effect; inconclusive = small, poorly fitted or top-dose-only effect, or effect the other way; inactive = no such curve, though single readings can be large or run the other way. No potency is given beside an inconclusive call; the fits are too rough.
# Biological target: Neuropeptide S receptor (Homo sapiens) (UniProt Q6W5P4)
# Assay: qHTS Assay for Antagonists of the Neuropeptide S Receptor: cAMP Signal Transduction; also: nearly all actives have a fitted effect of over 50% in size
# Details: CHO-NPSR cells, cAMP TR-FRET, antagonist mode; series mostly up to 38.3 µM
# Potency is read from the fitted curve at half-maximal effect; tags tell the direction and shape of the fitted curve.
# Sequence of UniProt Q6W5P4 (Q6W5P4 whole entry, looked up): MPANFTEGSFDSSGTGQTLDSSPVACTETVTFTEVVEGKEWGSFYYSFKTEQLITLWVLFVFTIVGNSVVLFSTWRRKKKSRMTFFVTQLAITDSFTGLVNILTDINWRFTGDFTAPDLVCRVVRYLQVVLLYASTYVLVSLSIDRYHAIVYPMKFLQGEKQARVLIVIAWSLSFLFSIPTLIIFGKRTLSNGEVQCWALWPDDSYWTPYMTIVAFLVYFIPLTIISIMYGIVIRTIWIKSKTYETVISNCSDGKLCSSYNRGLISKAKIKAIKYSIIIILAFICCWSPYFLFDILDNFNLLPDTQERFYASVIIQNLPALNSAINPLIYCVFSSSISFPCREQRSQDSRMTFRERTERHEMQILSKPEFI
row,Structure (SMILES),Potency
1,O=C(CSc1ccccc1)N/N=C/c1ccccc1O,inactive
2,O=Cc1ccc(O)c(O)c1,inactive
3,Cc1cccn2c(=O)c(C=O)c(Cl)nc12,"inconclusive [inhibitor, single point]"
4,O=C1ON=C(c2ccccc2)/C1=C/c1ccco1,"inconclusive [inhibitor, single point]"
5,CCc1noc(C)c1C(=O)N1CC(C)OC(C)C1 (configuration not stated),"inconclusive [inhibitor, single point]"
6,COC(=O)c1ccc(C(=O)NC(=S)Nc2nc3c(s2)CCCC3)cc1,inactive
7,CC(C)=C1C(=O)NN(c2ccc(C)c(Cl)c2)C1=O,inactive
8,Cc1cc(-n2c(SCC(=O)NCc3cccs3)nc3n[nH]c(C)c3c2=N)ccc1Cl,"inconclusive [activator, single point]"
9,CCCN(CCC)S(=O)(=O)c1ccc(C(=O)NCc2ccc3c(c2)OCO3)cc1,"inconclusive [inhibitor, partial curve]"
10,O=C(Nc1ccc(Cl)cc1C(=O)Nc1ccc(Br)cn1)c1ccco1,"inconclusive [inhibitor, partial curve]"
11,COc1ccc(-c2cc(=O)oc3c(C)c(O)c(CN(C)C)cc23)cc1,"inconclusive [inhibitor, single point]"
12,CN(C)c1nc(SCc2ccccc2)nc(N2CCOCC2)n1,"inconclusive [inhibitor, single point]"
13,Cc1csc(N/N=C/c2ccccn2)n1,"inconclusive [inhibitor, single point]"
14,COc1ccc(NC(=S)Nc2cnc3ccccc3c2)c(OC)c1,inactive
15,Cc1sc(NC(=O)c2ccco2)c(C(c2ccncc2)N2CCOCC2)c1C (configuration not stated),"inconclusive [inhibitor, single point]"
16,O=C(C[n+]1cc(-c2ccccc2)n2c1CCCCC2)c1ccc(Cl)cc1,inactive
17,Cc1ccc(S(=O)(=O)N2CCN(CC(=O)N/N=C/c3cc([N+](=O)[O-])ccc3Cl)CC2)cc1,"inconclusive [inhibitor, single point]"
18,Cc1ccc(/C=C/C(=O)c2nc3ccccc3[nH]2)cc1,"inconclusive [inhibitor, single point]"
19,OC(CNCCC1C=Nc2ccccc21)Cn1c2ccc(Cl)cc2c2cc(Cl)ccc21 (configuration not stated),active: 10 µM
20,O=C(/C=C/c1ccccc1Cl)c1ccccc(=O)c1O,active: 10 µM
21,Oc1ccc(C=Nc2ccccc2-c2nc3ccccc3[nH]2)cc1,"inconclusive [activator, partial curve]"
22,CCc1nc2ccccc2c(C(=O)Oc2cccc3cccnc23)c1C,"inconclusive [inhibitor, partial curve]"
23,O=C(c1ccc(Cl)nc1)N1CCN(C/C=C/c2ccccc2)CC1,inactive
24,Cc1cc(C)c(O)c(-c2cc(C(=O)Nc3ccc(S(=O)(=O)N4CCOCC4)cc3)[nH]n2)c1,active: 12.6 µM

row,Structure (SMILES),Potency
1,COC(=O)c1ccc(C(c2c(N)n(CC(C)C)c(=O)[nH]c2=O)N2CCN(c3ccccc3)CC2)cc1 (configuration not stated),"inconclusive [inhibitor, partial curve]"
2,Brc1ccc(C2=CC(c3cccs3)n3ncnc3N2)cc1 (configuration not stated),"inconclusive [inhibitor, single point]"
3,CCCc1c(O)nc(SCCN(CCC)CCC)[nH]c1=O,"inconclusive [inhibitor, single point]"
4,COc1cccc2sc(N(CCCN(C)C)C(=O)C(c3ccccc3)c3ccccc3)nc12,"inconclusive [inhibitor, single point]"
5,CCOc1ccc(Cl)cc1S(=O)(=O)N1CCN(c2ccc(C)c(C)c2)CC1,"inconclusive [inhibitor, single point]"
6,CN(C)S(=O)(=O)c1cccc(-c2nn(-c3ccccc3)cc2/C=C2\SC(=S)N(CC(=O)O)C2=O)c1,"inconclusive [inhibitor, single point]"
7,O=c1c2ccccc2c(-c2ccccc2)nn1Cc1c(Cl)cccc1Cl,"inconclusive [inhibitor, single point]"
8,CC(C)NC(=S)NCc1cccs1,inactive
9,Oc1ccc(/C=N/N2CCN(C3c4ccccc4-c4ccccc43)CC2)cc1O,active: 10 µM
10,COc1ccc(CC(=O)Nc2ccc(NC(=O)c3ccccc3F)cc2)cc1,"inconclusive [activator, single point]"
11,CCn1nc(C(=O)Nc2cccc3ccccc23)c(Cl)c1Cl,inactive
12,CCOC(=O)c1c(NC(=O)C(Sc2ccccc2)c2ccccc2)sc(C(N)=O)c1C (configuration not stated),"inconclusive [inhibitor, partial curve]"
13,O=C(c1ccc(-n2cnnn2)cc1)N1CCN(C(c2ccccc2)c2ccccc2)CC1,"inconclusive [inhibitor, single point]"
14,Cc1ccc(C(=O)C2=C(O)C(=O)N(CCCn3ccnc3)C2c2ccc(OC(C)C)cc2)o1 (configuration not stated),"inconclusive [activator, partial curve]"
15,O=C(NC(=S)Nc1ccc2c(c1)OCCO2)c1cccc2ccccc12,inactive
16,Cn1nc(-c2ccccc2)c(CSc2ccccc2)c1Cl,"inconclusive [inhibitor, single point]"
17,Cc1oc(-c2cccs2)nc1CN1CCC(c2ccccc2)CC1,"inconclusive [activator, single point]"
18,O=C(OCC(=O)N1CCc2ccccc21)c1cncc(Br)c1,inactive
19,COc1cccc(N2CCN(c3ncnc4c3[nH]c3ccccc34)CC2C)c1 (configuration not stated),active: 10 µM
20,CC(C)(C)c1nc(NCC2CCCO2)c2nnn(Cc3ccccc3)c2n1 (configuration not stated),"inconclusive [inhibitor, partial curve, poor fit]"
21,O=C(CSc1nnc(COc2ccccc2)n1Cc1ccco1)c1ccc(F)cc1,"inconclusive [inhibitor, partial curve]"
22,COC(=O)c1cc2oc(C)cc2n1CC(=O)N1CCCc2ccccc21,inactive
23,Cc1c(Cl)ccc2c(C(N)=O)cc(-c3ccccn3)nc12,"inconclusive [inhibitor, single point]"
